# The full ranking holds about 2,900 compounds; the median of “NF-kB SEAP reporter activity, fold change vs agonist alone” is about 0.99, and the highest 2% start at about 2.6. Some of the results follow.
# Assays:
# RAW-Dual [1] = assay: NF-kB SEAP reporter activity, fold change vs agonist alone; cytotoxicity flag (confluency mask): not cytotoxic; higher = enhanced NF-kB activity
# Outline: (§1)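 RAW-Dual macrophages were seeded in DMEM at 50,000 cells/well in 384-well plates, given 50 nL of library stock by pin tool, and given a PRR agonist 1 h later. Plates were held at 37 °C, 5% CO2 for 20 hours, after which supernatant was read for IRF by QuantiLuc luminescence and for NF-κB by QuantiBlue absorbance at 620 nm. Reporter activity is expressed as fold change over wells that received agonist alone. A well was called cytotoxic when IncuCyte confluency fell below 70% of agonist controls in both mask sets.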
# RAW-Dual [2] = assay: NF-kB SEAP reporter activity, fold change vs agonist alone; higher = enhanced NF-kB activity
# Outline: as §1
# RAW-Dual [3] = assay: NF-kB SEAP reporter activity, fold change vs agonist alone; cytotoxicity flag (confluency mask): cytotoxic (confluency <70% of control); higher = enhanced NF-kB activity
# Outline: as §1
# [4] = agonist: ODN 1826 (TLR9) 0.5 ug/mL
# [5] = agonist: Pam2CSK4 (TLR2/6) 0.1 ug/mL
# [6] = agonist: Pam3CSK4 (TLR2/1) 0.1 ug/mL
# [7] = library stock concentration (final ~1000-fold dilution): 10 mM, cytotoxicity flag (confluency mask): not cytotoxic, agonist: Imiquimod (TLR7) […]
# [8] = library stock concentration (final ~1000-fold dilution): 10 mM, cytotoxicity flag (confluency mask): not cytotoxic, agonist: MPLA (TLR4) […]
# [9] = library stock concentration (final ~1000-fold dilution): 10 mM, cytotoxicity flag (confluency mask): cytotoxic (confluency <70% of control), agonist: Imiquimod (TLR7) […]
# [10] = library stock concentration (final ~1000-fold dilution): 10 mM, cytotoxicity flag (confluency mask): cytotoxic (confluency <70% of control), agonist: MPLA (TLR4) […]
smiles,measurement,setting,value
CCCc1cc(C)[nH]c(=O)c1CNC(=O)c1cc(-c2ccnc(N3CCN(C)CC3)c2)cc2c1cnn2C(C)C (library stock concentration (final ~1000-fold dilution): 2 mM),NF-kB SEAP reporter activity,RAW-Dual [1]; agonist: LPS (TLR4) 0.1 ug/mL,1.44
same,NF-kB SEAP reporter activity,RAW-Dual [1]; [4],1.07
same,NF-kB SEAP reporter activity,RAW-Dual [1]; [5],1.12
same,NF-kB SEAP reporter activity,RAW-Dual [1]; [6],1.24
CCCc1cc(C)[nH]c(=O)c1CNC(=O)c1cc(-c2ccnc(N3CCN(C)CC3)c2)cc2c1cnn2C(C)C,NF-kB SEAP reporter activity,"RAW-Dual [2]; library stock concentration (final ~1000-fold dilution): 2 mM, cytotoxicity flag (confluency mask): not cytotoxic, agonist: Imiquimod (TLR7) […]",0.989
same,NF-kB SEAP reporter activity,"RAW-Dual [2]; library stock concentration (final ~1000-fold dilution): 2 mM, cytotoxicity flag (confluency mask): not cytotoxic, agonist: MPLA (TLR4) […]",1.03
CN(CCCCCCCCCCN(C)C(=O)Oc1cccc([N+](C)(C)C)c1)C(=O)Oc1cccc([N+](C)(C)C)c1 (library stock concentration (final ~1000-fold dilution): 10 mM),NF-kB SEAP reporter activity,RAW-Dual [1]; agonist: LPS (TLR4) 0.1 ug/mL,1.26
same,NF-kB SEAP reporter activity,RAW-Dual [1]; [4],0.95
same,NF-kB SEAP reporter activity,RAW-Dual [1]; [5],1.11
same,NF-kB SEAP reporter activity,RAW-Dual [1]; [6],1.12
CN(CCCCCCCCCCN(C)C(=O)Oc1cccc([N+](C)(C)C)c1)C(=O)Oc1cccc([N+](C)(C)C)c1,NF-kB SEAP reporter activity,RAW-Dual [2]; [7],0.95
same,NF-kB SEAP reporter activity,RAW-Dual [2]; [8],1.04
Cc1c(C(=O)Nc2ccc(N3CC(C)OC(C)C3)nc2)cccc1-c1ccc(OC(F)(F)F)cc1 (stereo unspecified),NF-kB SEAP reporter activity,RAW-Dual [2]; [7],0.808
same,NF-kB SEAP reporter activity,RAW-Dual [2]; [8],0.657
Cc1c(C(=O)Nc2ccc(N3CC(C)OC(C)C3)nc2)cccc1-c1ccc(OC(F)(F)F)cc1 (stereo unspecified) (library stock concentration (final ~1000-fold dilution): 10 mM),NF-kB SEAP reporter activity,RAW-Dual [1]; agonist: LPS (TLR4) 0.1 ug/mL,1.13
same,NF-kB SEAP reporter activity,RAW-Dual [1]; [4],1.35
same,NF-kB SEAP reporter activity,RAW-Dual [1]; [5],0.839
same,NF-kB SEAP reporter activity,RAW-Dual [1]; [6],1.12
CCCCC(CC)COC(=O)CC(C(=O)OCC(CC)CCCC)S(=O)(=O)O (stereo unspecified) (library stock concentration (final ~1000-fold dilution): 10 mM),NF-kB SEAP reporter activity,RAW-Dual [3]; agonist: LPS (TLR4) 0.1 ug/mL,0.759
same,NF-kB SEAP reporter activity,RAW-Dual [3]; [4],0.813
same,NF-kB SEAP reporter activity,RAW-Dual [3]; [5],0.803
same,NF-kB SEAP reporter activity,RAW-Dual [3]; [6],0.79
CCCCC(CC)COC(=O)CC(C(=O)OCC(CC)CCCC)S(=O)(=O)O (stereo unspecified),NF-kB SEAP reporter activity,RAW-Dual [2]; [9],0.887
same,NF-kB SEAP reporter activity,RAW-Dual [2]; [10],0.81
C=CC1CN2CCC1CC2C(O)c1ccnc2ccc(OC)cc12.C=CC1CN2CCC1CC2C(O)c1ccnc2ccc(OC)cc12.O.O.O=S(=O)(O)O (stereo unspecified) (library stock concentration (final ~1000-fold dilution): 10 mM),NF-kB SEAP reporter activity,RAW-Dual [1]; agonist: LPS (TLR4) 0.1 ug/mL,1.16
same,NF-kB SEAP reporter activity,RAW-Dual [1]; [4],0.531
same,NF-kB SEAP reporter activity,RAW-Dual [1]; [5],1.35
same,NF-kB SEAP reporter activity,RAW-Dual [1]; [6],1.05
C=CC1CN2CCC1CC2C(O)c1ccnc2ccc(OC)cc12.C=CC1CN2CCC1CC2C(O)c1ccnc2ccc(OC)cc12.O.O.O=S(=O)(O)O (stereo unspecified),NF-kB SEAP reporter activity,RAW-Dual [2]; [7],1.06
same,NF-kB SEAP reporter activity,RAW-Dual [2]; [8],0.931
CNCCC(Oc1ccc(C(F)(F)F)cc1)c1ccccc1.Cl (stereo unspecified) (library stock concentration (final ~1000-fold dilution): 10 mM),NF-kB SEAP reporter activity,RAW-Dual [3]; agonist: LPS (TLR4) 0.1 ug/mL,1.16
same,NF-kB SEAP reporter activity,RAW-Dual [3]; [4],0.851
same,NF-kB SEAP reporter activity,RAW-Dual [3]; [5],0.553
same,NF-kB SEAP reporter activity,RAW-Dual [3]; [6],0.698
CNCCC(Oc1ccc(C(F)(F)F)cc1)c1ccccc1.Cl (stereo unspecified),NF-kB SEAP reporter activity,RAW-Dual [2]; [9],1.46
same,NF-kB SEAP reporter activity,RAW-Dual [2]; [10],1.43
NC(CO)(CO)CO.O=C(c1ccccc1)c1ccc2n1CCC2C(=O)O (stereo unspecified),NF-kB SEAP reporter activity,RAW-Dual [2]; [7],0.873
same,NF-kB SEAP reporter activity,RAW-Dual [2]; [8],0.938
NC(CO)(CO)CO.O=C(c1ccccc1)c1ccc2n1CCC2C(=O)O (stereo unspecified) (library stock concentration (final ~1000-fold dilution): 10 mM),NF-kB SEAP reporter activity,RAW-Dual [1]; agonist: LPS (TLR4) 0.1 ug/mL,1.07
same,NF-kB SEAP reporter activity,RAW-Dual [1]; [4],0.849
same,NF-kB SEAP reporter activity,RAW-Dual [1]; [5],0.961
same,NF-kB SEAP reporter activity,RAW-Dual [1]; [6],1.28
COc1cn(-c2ccc(-n3cccn3)cc2F)nc(-c2ccnn2-c2ccccc2)c1=O,NF-kB SEAP reporter activity,RAW-Dual [2]; [7],1.19
same,NF-kB SEAP reporter activity,RAW-Dual [2]; [8],1.1
COc1cn(-c2ccc(-n3cccn3)cc2F)nc(-c2ccnn2-c2ccccc2)c1=O (library stock concentration (final ~1000-fold dilution): 10 mM),NF-kB SEAP reporter activity,RAW-Dual [1]; agonist: LPS (TLR4) 0.1 ug/mL,1.14
same,NF-kB SEAP reporter activity,RAW-Dual [1]; [4],1.3
same,NF-kB SEAP reporter activity,RAW-Dual [1]; [5],0.992
same,NF-kB SEAP reporter activity,RAW-Dual [1]; [6],1.28
COC(=O)NC(C(=O)NC(Cc1ccccc1)C(O)CN(Cc1ccc(-c2ccccn2)cc1)NC(=O)C(NC(=O)OC)C(C)(C)C)C(C)(C)C (stereo unspecified) (library stock concentration (final ~1000-fold dilution): 10 mM),NF-kB SEAP reporter activity,RAW-Dual [1]; agonist: LPS (TLR4) 0.1 ug/mL,1.03
same,NF-kB SEAP reporter activity,RAW-Dual [1]; [4],1.02
same,NF-kB SEAP reporter activity,RAW-Dual [1]; [5],1.11
same,NF-kB SEAP reporter activity,RAW-Dual [1]; [6],0.79
COC(=O)NC(C(=O)NC(Cc1ccccc1)C(O)CN(Cc1ccc(-c2ccccn2)cc1)NC(=O)C(NC(=O)OC)C(C)(C)C)C(C)(C)C (stereo unspecified),NF-kB SEAP reporter activity,RAW-Dual [2]; [8],0.961
CC(NC(=O)C(NC(=O)OCc1ccccc1)C(C)C)C(=O)NC(CC(=O)O)C(=O)CF (stereo unspecified) (library stock concentration (final ~1000-fold dilution): 10 mM),NF-kB SEAP reporter activity,RAW-Dual [1]; agonist: LPS (TLR4) 0.1 ug/mL,1.23
same,NF-kB SEAP reporter activity,RAW-Dual [1]; [4],0.939
same,NF-kB SEAP reporter activity,RAW-Dual [1]; [5],0.948
same,NF-kB SEAP reporter activity,RAW-Dual [1]; [6],1.03
CC(NC(=O)C(NC(=O)OCc1ccccc1)C(C)C)C(=O)NC(CC(=O)O)C(=O)CF (stereo unspecified),NF-kB SEAP reporter activity,RAW-Dual [2]; [7],0.964
same,NF-kB SEAP reporter activity,RAW-Dual [2]; [8],0.934
C=CC(=O)Nc1cccc(Oc2nc(Nc3ccc(N4CCN(C)CC4)cc3)ncc2Cl)c1 (library stock concentration (final ~1000-fold dilution): 10 mM),NF-kB SEAP reporter activity,RAW-Dual [1]; agonist: LPS (TLR4) 0.1 ug/mL,0.257
same,NF-kB SEAP reporter activity,RAW-Dual [1]; [4],0.175
same,NF-kB SEAP reporter activity,RAW-Dual [1]; [5],0.0969
same,NF-kB SEAP reporter activity,RAW-Dual [1]; [6],0.142
C=CC(=O)Nc1cccc(Oc2nc(Nc3ccc(N4CCN(C)CC4)cc3)ncc2Cl)c1,NF-kB SEAP reporter activity,RAW-Dual [2]; [7],0.491
same,NF-kB SEAP reporter activity,RAW-Dual [2]; [8],0.339
CC(C)(NS(=O)(=O)c1ccc2c(Cl)cnc(NC(=N)N)c2c1)C(=O)O.Cl (library stock concentration (final ~1000-fold dilution): 10 mM),NF-kB SEAP reporter activity,RAW-Dual [1]; agonist: LPS (TLR4) 0.1 ug/mL,1.1
same,NF-kB SEAP reporter activity,RAW-Dual [1]; [4],1.01
same,NF-kB SEAP reporter activity,RAW-Dual [1]; [5],0.913
same,NF-kB SEAP reporter activity,RAW-Dual [1]; [6],0.764
CC(C)(NS(=O)(=O)c1ccc2c(Cl)cnc(NC(=N)N)c2c1)C(=O)O.Cl,NF-kB SEAP reporter activity,RAW-Dual [2]; [7],0.99
same,NF-kB SEAP reporter activity,RAW-Dual [2]; [8],0.923

# From the supplement of paper PMC10037445
